# Reference: US7238525B2, “Strategy for leukemia therapy” (The Regents of the University of California, priority 2000, dated 2007)
# Test system: TonB210 cells
# Assay: Tyrosine-phosphorylated proteins in total cell lysates, TonB210
# Details: at the end of drug treatments
smiles,measurement,value
"Cc1ccc(NC(=O)c2ccc(CN3CCN(C)CC3)cc2)cc1Nc1nccc(-c2cccnc2)n1 [STI571, 4-[(4-methyl-piperazinyl)methyl]-N-[4-methyl-3-[[4-(3-pyrodnyl)-2-pyrimidinyl]amin]phenyl]benzamide methanesul-fonate]",overall levels of tyrosine-phosphorylated proteins,decreased
